{"source": "the antibiotic and cytotoxicity screens of Wong et al. (2023)", "note": "The other results are listed elsewhere or left out."}
{"test_system": "HepG2", "test": "cytotoxicity call (relative viability < 0.9)", "settings": "10 µM"}
{"smiles": "Cc1noc(C)c1NC(=O)Nc1ccc2c(c1)C(=O)N([C@H](C)CO)C[C@H](C)[C@H](CN(C)CC1CCCCC1)OCCCC[C@H](C)O2", "cytotoxicity call": "inactive"}
{"smiles": "CC12CCC3C(=CCc4cc(O)ccc43)C1CCC2=O", "note": "(stereo not given)", "cytotoxicity call": "inactive"}
{"smiles": "COc1ccc(NC(=O)N(C)C[C@@H]2OCCCC[C@@H](C)Oc3ccc(NS(=O)(=O)c4ccc(F)cc4)cc3C(=O)N([C@H](C)CO)C[C@@H]2C)cc1", "cytotoxicity call": "inactive"}
{"smiles": "NC1(CC(=O)O)CCN(Cc2ccccc2)CC1", "cytotoxicity call": "inactive"}
{"smiles": "c1ccc(-c2nc(-c3cccs3)[nH]c2-c2ccccc2)cc1", "cytotoxicity call": "inactive"}
{"smiles": "COc1ccccc1C#Cc1cnc2c(c1)C(=O)N([C@@H](C)CO)C[C@@H](C)[C@@H](CN(C)S(=O)(=O)c1cn(C)cn1)O2", "cytotoxicity call": "inactive"}
{"smiles": "Cn1cnc(S(=O)(=O)N2C[C@H](O)COC[C@@H]3O[C@H](CC(=O)NCc4ccc(F)cc4)CC[C@H]32)c1", "cytotoxicity call": "inactive"}
{"smiles": "N#C[C@@H]1C(=O)NC(=O)[C@@H](C#N)C12CCCC2", "cytotoxicity call": "inactive"}
{"smiles": "Cc1ccc(S(=O)(=O)N(C)C[C@@H]2Oc3ccc(NC(=O)Nc4ccc(C(F)(F)F)cc4)cc3CC(=O)N([C@@H](C)CO)C[C@H]2C)cc1", "cytotoxicity call": "active"}
{"smiles": "N=C(N)NCCSC(=N)N", "cytotoxicity call": "inactive"}
{"smiles": "O=C(O)c1cccnc1C(=O)O", "cytotoxicity call": "inactive"}
{"smiles": "CCCN(CCC)CCc1cccc2c1CC(=O)N2.Cl", "cytotoxicity call": "inactive"}
{"smiles": "C[C@@H]1CCCCO[C@H](CN(C)Cc2ccc(Cl)c(Cl)c2)[C@@H](C)CN([C@@H](C)CO)C(=O)c2cc(NC(=O)Cc3ccccc3)ccc2O1", "cytotoxicity call": "inactive"}
{"smiles": "C[C@@H]1CN([C@@H](C)CO)C(=O)c2cc(NS(C)(=O)=O)ccc2O[C@H]1CN(C)Cc1ccc(C(=O)O)cc1", "cytotoxicity call": "inactive"}
{"smiles": "CC(C)NC(=O)Nc1ccc2c(c1)C(=O)N([C@H](C)CO)C[C@H](C)[C@H](CN(C)C(=O)Nc1ccc(F)cc1)OCCCC[C@@H](C)O2", "cytotoxicity call": "inactive"}
{"smiles": "C[C@@H]1CCCCO[C@H](CN(C)Cc2ccccc2)[C@@H](C)CN([C@@H](C)CO)C(=O)c2cc(NC(=O)CCC(F)(F)F)ccc2O1", "cytotoxicity call": "inactive"}
{"smiles": "CCS(=O)(=O)N1CCO[C@]2(COCCN(c3cncnc3)C2)C1", "cytotoxicity call": "inactive"}
{"smiles": "CCNC(=S)N1CCOCC1", "cytotoxicity call": "inactive"}
{"smiles": "C[C@@H]1CN([C@@H](C)CO)C(=O)Cc2cc(NC(=O)CCC(F)(F)F)ccc2O[C@@H]1CN(C)C(=O)Nc1cccc2ccccc12", "cytotoxicity call": "inactive"}
{"smiles": "Cc1ccc(-c2ccc3c(c2)O[C@@H](CN(C)C(=O)NC(C)C)[C@@H](C)CN([C@@H](C)CO)S3(=O)=O)cc1", "cytotoxicity call": "inactive"}
{"smiles": "O=C(CCCCCNC(=O)OCc1ccc(CO[C@@H]2C[C@H](c3ccccc3)C=C(C(=O)N3CCN(Cc4ccccc4)CC3)O2)cc1)NO", "cytotoxicity call": "inactive"}
{"smiles": "Cc1noc(C)c1NC(=O)Nc1ccc2c(c1)CC(=O)N([C@@H](C)CO)C[C@@H](C)[C@H](CN(C)CC1CC1)O2", "cytotoxicity call": "inactive"}
{"smiles": "C[C@@H]1CN([C@@H](C)CO)C(=O)c2cccc(NC(=O)NC3CCCCC3)c2O[C@@H]1CN(C)S(C)(=O)=O", "cytotoxicity call": "inactive"}
{"smiles": "C[C@@H]1CN([C@@H](C)CO)C(=O)c2cc(NC(=O)CCC(F)(F)F)ccc2O[C@H]1CN(C)C(=O)Nc1ccc(C(F)(F)F)cc1", "cytotoxicity call": "inactive"}
{"smiles": "Cl.NC(CO)C(=O)NNCc1ccc(O)c(O)c1O", "note": "(stereo not given)", "cytotoxicity call": "inactive"}
{"smiles": "CCS(=O)(=O)Nc1ccc2c(c1)C(=O)N(C)C[C@H](OC)[C@@H](C)CN(Cc1nccs1)[C@H](C)CO2", "cytotoxicity call": "inactive"}
{"smiles": "CCc1c(C)[nH]c(N2CCOCC2)nc1=O", "cytotoxicity call": "inactive"}
{"smiles": "C[C@@H]1CN([C@H](C)CO)C(=O)c2cccc(NC(=O)Nc3ccc(F)cc3)c2O[C@H]1CN(C)Cc1ccc(Cl)c(Cl)c1", "cytotoxicity call": "inactive"}
{"smiles": "C[C@@H]1CCCCO[C@@H](CN(C)C(=O)Nc2cccc3ccccc23)[C@H](C)CN([C@@H](C)CO)C(=O)c2cc(NS(=O)(=O)c3cn(C)cn3)ccc2O1", "cytotoxicity call": "inactive"}
{"smiles": "C[C@@H]1CN([C@@H](C)CO)S(=O)(=O)c2ccc(C#CC(C)(C)O)cc2O[C@@H]1CN(C)Cc1ccc(F)cc1", "cytotoxicity call": "inactive"}
{"smiles": "COC(=O)c1cncn1C", "cytotoxicity call": "inactive"}
{"smiles": "C[C@@H]1CCCCO[C@@H](CN(C)Cc2ccc(C(=O)O)cc2)[C@@H](C)CN([C@H](C)CO)C(=O)c2cc(NC(=O)Cc3ccccc3)ccc2O1", "cytotoxicity call": "inactive"}
{"smiles": "C[C@@H]1CCCCO[C@@H](CN(C)S(C)(=O)=O)[C@@H](C)CN([C@H](C)CO)C(=O)c2cc(NC(=O)c3ccncc3)ccc2O1", "cytotoxicity call": "inactive"}
{"smiles": "COc1ccc(S(=O)(=O)N2C[C@H](O)COC[C@@H]3O[C@H](CC(=O)NCCCN(C)C)CC[C@H]32)cc1", "cytotoxicity call": "inactive"}
{"smiles": "C[C@H](CO)N1C[C@H](C)[C@H](CN(C)C(=O)c2ccccc2)OCCCC[C@H](C)Oc2ccc(NC(=O)CCC(F)(F)F)cc2C1=O", "cytotoxicity call": "inactive"}
{"smiles": "COc1ccc(C(=O)Nc2ccc3c(c2)C(=O)N(C)[C@@H]2CC[C@@H](CC(=O)NCC4CC4)O[C@@H]2CO3)cc1", "cytotoxicity call": "inactive"}
{"smiles": "COC(=O)C12CC3(C(=O)OC)CC(C(=O)OC)(CC(C(=O)OC)(C1)C3=O)C2=O", "cytotoxicity call": "inactive"}
{"smiles": "CCOC(=O)CCc1n[nH]c(=O)[nH]c1=O", "cytotoxicity call": "inactive"}
{"smiles": "C=CC[C@@H](CC(=O)N(CCO)Cc1ccccc1)C(=O)NC[C@H](OC(=O)[C@H](CC=C)NC(=O)OCC1c2ccccc2-c2ccccc21)c1ccccc1", "cytotoxicity call": "inactive"}
{"smiles": "O=C(/C=C/c1cc2c(cc1Br)OCCO2)c1c(-c2ccccc2)c2cc(Cl)ccc2[nH]c1=O", "cytotoxicity call": "active"}
